The source of these data is ChEMBL document CHEMBL4888484, “Replenishing the malaria drug discovery pipeline: Screening and hit evaluation of the MMV Hit Generation Library 1 (HGL1) against asexual blood stage Plasmodium falciparum ,using a nano luciferase reporter read-out” (2022).

About 540 (0.36%) of roughly 150,000 compounds showed an effect of 50% or more. The list shows a part of the results.

In the assay the test system is Plasmodium falciparum. The assay is described as follows: Primary screen in NF54 nanoGlo assay, in single point, at 2uM, 72h; a lower Z score goes with more inhibition. It is filed as functional, Erythrocyte. Conditions: timepoint 72 hour.
As to `CCCc1nc(CN(CC)C(=O)CCc2ccc3c(c2)OCO3)no1`, the “% Inhibition” value is given as -5% and the Z score was 0.67.
On the same counts, the results for `Cc1nc(C(F)(F)F)c(CN(C)CC2(O)CCOCC2)s1` are -1% and 0.12.
As to `O=S(=O)(Cc1cc(F)ccc1F)N1CC[C@H](Oc2cccnn2)C1`, the “% Inhibition” value is reported as -9% and the Z score amounted to 1.38.
On the same counts, the results for `CC1CC(C)CN(S(=O)(=O)c2ccc(C(=O)N3CC(=O)Nc4ccccc43)cc2)C1` (centres undefined) are 7% and -0.91.
Consider `COc1cc2c(cc1C(=O)N1C[C@@H]3c4ccccc4OC[C@]3(CO)C1)CCC2`, for which the “% Inhibition” value is recorded as -7% and the Z score is on record as 0.88.
Regarding `C[C@@H](Cc1cccs1)NC(=O)c1ccncc1`, the “% Inhibition” value was -13% and the Z score was determined as 1.86.
On the same counts, the results for `CCCS(=O)(=O)N1CC[C@H](N2CCN(C)CC2)C1` are -5% and 0.6.
For `Cn1cc(Nc2cccc(NC(=O)C3CC4CCC3O4)c2)cn1` (centres undefined), in that order: -5% and 0.63.
For the molecule `Cc1cc(F)ccc1CC(C)NS(=O)(=O)N1CCCC(C(=O)O)C1` (centres undefined), the “% Inhibition” value was determined as 1% and the Z score was -0.1.
For `CC(=O)N1CC2(CCN(Cc3ccc(CC(C)C)s3)CC2)C[C@H]1C(=O)O`, in that order: -3% and 0.33.
For `CC[C@H](NS(=O)(=O)N1CCCC1)c1ccc(C)cn1`, in that order: -14% and 2.14.
`COc1ccc(CCC(=O)N2CCC3(CC2)C[C@H](CN2CCOCC2)N(C)C3)cc1`: the “% Inhibition” value stood at 4% and the Z score is recorded as -0.54.
On to `Cc1nc2ccc(NC(=O)c3cn(Cc4ccccn4)nn3)cc2s1`, for which the “% Inhibition” value is given as -18% and the Z score worked out at 1.96.
On the same counts, the results for `O=C(CCC(F)(F)F)NCC[C@H]1CCCCN1C1CCCC1` are -11% and 1.87.
Consider `O=C(NC1CC2CCC1C2)C1CC(=O)N(c2ccccc2)C1` (centres undefined), for which the “% Inhibition” value was -1% and the Z score is 0.09.
For `Cc1ccccc1CNC(=O)CCc1ccc2c(ccn2C)c1`, in that order: -19% and 2.13.
With `Cc1c(-c2ccnc(N3CCCC3)n2)cnc2nc(C(F)(F)F)nn12`, the “% Inhibition” value is reported as -6% and the Z score amounted to 0.73.
On the same counts, the results for `CO[C@@]12CC[C@@H](Oc3ccccn3)C[C@@H]1N(C(=O)c1c[nH]c(=O)[nH]1)CC2` are -14% and 1.81.
`O=C(NC(Cc1ccccn1)[C@H]1C[C@H](O)C1)c1ccn2cnnc2c1` (some centres undefined): the “% Inhibition” value is on record as 2% and the Z score is -0.36.
On the same counts, the results for `O=C(c1cc(=O)[nH]c2ccc(F)cc12)N1CCCCCC1` are -11% and 1.35.
On the same counts, the results for `COc1ccccc1N1CCN(C(=O)C2CCN(S(=O)(=O)Cc3ccc(Cl)cc3)CC2)CC1` are -12% and 2.28.
On the same counts, the results for `CCc1cc(C(=O)N2C[C@H]3CCC[C@@H](C3)C2)ccn1` are -6% and 1.18.
As to `Cc1ccc(C)c(NC(=O)CN2CCN([C@H]3CCOC3)CC2)c1`, the “% Inhibition” value is reported as 4% and the Z score was -0.44.
For `COCCn1nnc2cc(S(=O)(=O)N3CCCC[C@H]3C(=O)Nc3ccccc3Cl)ccc21`, in that order: -35% and 3.06.
For `COc1ccc(OC)c([C@@H]2CCCN2Cc2nc3cc(Cl)ccc3c(=O)[nH]2)c1`, in that order: -26% and 4.9.
For `Cn1cncc1CNCc1cc(Br)c2c(c1)OCO2`, in that order: -6% and 0.75.
As to `CC(=O)N[C@H]1CN(C(=O)c2cnn3ccccc23)C[C@@H]1c1ccc(C)cc1`, the “% Inhibition” value came out at 5% and the Z score was -0.67.
On the same counts, the results for `Cc1nn(C)c(C)c1-c1cc(C(=O)NCCCN2CCCC2=O)n(C)n1` are -3% and 0.27.
On the same counts, the results for `COC(=O)c1ccc(Cn2nc(C3CCN(S(C)(=O)=O)CC3)n(C)c2=O)cc1` are -4% and 0.62.
On the same counts, the results for `C/C(=C/c1ccccc1)C(=O)N1CCC[C@H](n2cnc3ccccc3c2=O)C1` are -9% and 1.46.
With `CCc1cccc2c(C(CC(=O)NC(C)c3ccccc3)c3ccccc3)cn(CC)c12` (centres undefined), the “% Inhibition” value is listed as -2% and the Z score was determined as 0.37.
On the same counts, the results for `O=C(NCc1ccc(F)cc1)c1cc(S(=O)(=O)N2CCOCC2)ccc1N1CCCCC1` are -11% and 1.9.
On the same counts, the results for `CN(CC(=O)N1CCc2ccccc2C1)c1ccccc1` are -9% and 1.82.
For `CC1(C)CN(C(=O)C2CCCCCC2)CCCO1`, in that order: -1% and 0.15.
As for `O=C(Nc1nccc2ccncc12)c1n[nH]c(=O)c2ccccc12`, the “% Inhibition” value is -17% and the Z score worked out at 2.1.
Take `O=C(NCc1ccc(C2CC2)cc1)N1CCN2CCOC[C@@H]2C1`: the “% Inhibition” value is given as 7% and the Z score is -1.44.
Consider `Cc1cc(C)n2ncc(CN3C[C@@H]4CC[C@H]3CN(Cc3ccccc3)C4)c2n1`, for which the “% Inhibition” value is listed as -3% and the Z score was 0.32.
On the same counts, the results for `COc1ccc(COc2ccc(=O)n(-c3ccc(C(=O)Nc4ccc(C)c(C)c4)cc3)n2)cc1` are -10% and 1.7.
On the same counts, the results for `CC(C)C(=O)N1CC[C@H](Nc2ccc3nccnc3n2)C1` are 6% and -0.76.
On the same counts, the results for `C=CC[C@H](NC(=O)OCc1ccccc1)c1ccccc1` are 7% and -1.39.
For `OC(CF)c1cccc(-c2noc([C@]34CCC[C@H]3OCC4)n2)c1` (some centres undefined), the “% Inhibition” value is -9% and the Z score worked out at 1.47.
For `NC(=O)c1ccc(CNc2ncnc3oc(-c4ccccc4)cc23)o1`, in that order: 26% and -3.55.
For `O=C(O)C1(Oc2ccc3c(c2)CCC3)CCN(c2cnccn2)CC1`, in that order: -9% and 1.45.
On the same counts, the results for `O=C(c1ncccc1N1CCCCC1)N1CCc2[nH]nc(-c3ccno3)c2C1` are -7% and 0.65.
Turning to `O=S(=O)(CCC1CCCC1)N1CC[C@H](O)[C@@H](C2CCCC2)C1`, the “% Inhibition” value is given as -9% and the Z score is recorded as 1.42.
`Cc1nn(-c2ccc(Br)cc2)cc1-c1noc(C(=O)N[C@H]2CCCc3ccccc32)n1`: the “% Inhibition” value is on record as -5% and the Z score came out at 0.72.
For `CCC(=O)NC1CCC(Nc2nc(C)nc3c2c(C)nn3-c2ccccc2)CC1` (centres undefined), in that order: 4% and -0.55.
For `CCN1CCN(C(=O)C(C)(C)C#N)[C@@H](C)C1=O`, in that order: -6% and 1.1.
Turning to `CCc1ccc2c(c1)C1OCCCC1C(c1ccc(F)cc1)N2` (centres undefined), the “% Inhibition” value is listed as 1% and the Z score was -0.21.
On the same counts, the results for `CCCc1cc(NC(=O)C[C@@H]2C[C@H]2c2ccccc2)n[nH]1` are -12% and 1.59.
On the same counts, the results for `CCCn1cnnc1CNC(=O)c1ccc(-c2ccc(=O)n(C)n2)cc1` are 2% and -0.33.
On the same counts, the results for `C[C@H]1C[C@@H]1c1cc(N)n(-c2ccccc2)n1` are -2% and 0.2.

A word on the % Inhibition: it is the change of the read-out against control, counted positive when it falls.
